# In all, about 310,000 compounds went through this assay and about 14,000 (4.5%) showed an effect of 50% or more. Effects have a minus sign here. This is one part of the list.
# Molecular target: human ether-à-go-go-related gene (hERG) potassium channel (human, UniProt Q12809)
# Assay: primary screen, population patch clamp on CHO cells stably expressing hERG
# 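Note: peak tail current of the secondary pulse compared with the same well before compound.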
# Chain of human ether-à-go-go-related gene (hERG) potassium channel (Q12809 whole entry, looked up): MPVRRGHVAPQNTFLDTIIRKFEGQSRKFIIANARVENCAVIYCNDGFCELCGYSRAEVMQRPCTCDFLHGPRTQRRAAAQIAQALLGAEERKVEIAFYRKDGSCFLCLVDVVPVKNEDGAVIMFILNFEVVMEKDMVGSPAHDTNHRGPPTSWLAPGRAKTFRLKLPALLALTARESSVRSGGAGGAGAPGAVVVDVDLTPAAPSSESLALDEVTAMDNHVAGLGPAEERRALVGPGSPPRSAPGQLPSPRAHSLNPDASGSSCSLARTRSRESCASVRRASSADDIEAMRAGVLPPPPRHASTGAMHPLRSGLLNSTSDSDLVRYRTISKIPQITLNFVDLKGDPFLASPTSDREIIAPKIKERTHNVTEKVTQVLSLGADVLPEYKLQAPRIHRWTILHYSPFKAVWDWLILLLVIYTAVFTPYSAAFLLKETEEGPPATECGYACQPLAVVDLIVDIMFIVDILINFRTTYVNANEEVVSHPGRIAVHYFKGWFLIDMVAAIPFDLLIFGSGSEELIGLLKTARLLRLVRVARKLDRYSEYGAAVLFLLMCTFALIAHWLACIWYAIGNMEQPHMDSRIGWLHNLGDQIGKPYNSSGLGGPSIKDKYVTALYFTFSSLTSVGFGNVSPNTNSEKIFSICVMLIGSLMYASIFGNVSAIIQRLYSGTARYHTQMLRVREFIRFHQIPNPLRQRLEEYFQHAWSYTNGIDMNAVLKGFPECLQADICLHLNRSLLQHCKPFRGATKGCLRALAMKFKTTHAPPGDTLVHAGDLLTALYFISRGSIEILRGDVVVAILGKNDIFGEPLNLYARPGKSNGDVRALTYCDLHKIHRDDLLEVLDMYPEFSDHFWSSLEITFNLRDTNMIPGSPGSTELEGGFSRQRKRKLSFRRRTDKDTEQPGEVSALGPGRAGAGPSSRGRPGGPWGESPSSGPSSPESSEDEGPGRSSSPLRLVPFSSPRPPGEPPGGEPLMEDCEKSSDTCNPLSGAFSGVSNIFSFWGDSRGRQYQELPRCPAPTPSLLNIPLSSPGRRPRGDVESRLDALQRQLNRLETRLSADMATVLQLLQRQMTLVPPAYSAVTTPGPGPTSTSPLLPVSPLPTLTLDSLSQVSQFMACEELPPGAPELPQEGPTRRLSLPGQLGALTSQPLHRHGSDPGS
row,Structure (SMILES),"hERG current change (%, negative = inhibition) at 10uM [%]"
1,COc1ccccc1N1CCN(S(=O)(=O)c2cc(C(F)(F)F)cc(C(F)(F)F)c2)CC1,11.5
2,CC(=O)CCc1ccc2oc(C(=O)O)c(C)c2c1,-1.43
3,N#C/C(=N\Nc1ccc([N+](=O)[O-])cc1)C(N)=S,13.4
4,CSc1nc2sc(-c3ccccc3)cc2c(=O)n1N,17.4
5,COc1ccc(-c2csc(NC(C)c3nc4cc(C(=O)NCCCO)ccc4n3Cc3ccc(C)cc3)n2)cc1 (centres unmarked),9.34
6,C(=C(c1ccccc1)c1ccccc1)c1ccccn1,-4.2
7,Cc1ccc(-n2nc(C)c3c(C)c(CCC(=O)NCc4ccccc4)c(C)nc32)cc1,10.5
8,CCOC(=O)c1sc2ncn(/N=C/c3ccc(O)cc3)c(=O)c2c1C,12.7
9,CCCCCOC(=O)c1c(N)n(CCOC)c2nc3ccccc3nc12,-70.2
10,COc1ccc(CNC(=O)CN2CCC(C(=O)c3ccc(OC)cc3)CC2)cc1,-58
11,FC(F)(F)c1ccc(CN2C[C@@H]3C(c4ccccc4)C4(c5cccnc5)CC3(C4)[C@H]2c2ccccc2)cc1 (some centres unmarked),-23.7
12,Cc1ccc(-c2nnc3c4ccccc4c(C)nn23)cc1S(=O)(=O)N1CCN(CCO)CC1,-32.9
13,O=C(COc1ccc(S(=O)(=O)NC2CCCCC2)cc1Cl)NCc1cccnc1,-5.45
14,CCC(=O)c1ccc(OC(=O)c2ccc(Br)o2)cc1,4.68
15,CN(C(=O)c1ccc(NC(=O)C2CC=CCC2C(=O)O)cc1)c1ccccc1 (centres unmarked),16.7
16,CCc1ccc(NC(=O)CNC(=O)c2cn(-c3ccccc3OC)c(=O)c3ccccc23)cc1,-10.6
17,O=C(c1cccc([N+](=O)[O-])c1)N1CCN(c2ccc(N3CCOCC3)nn2)CC1,-24.2
18,Cc1ccc(C(=O)C(C)OC(=O)c2cc3cc([N+](=O)[O-])ccc3oc2=O)cc1 (centres unmarked),-41.2
19,O=c1[nH]c2ccccc2c2nc(-c3cccc(S(=O)(=O)N4CCCC4)c3)nn12,21.2
20,Cc1ccc(N(CC(=O)N2CCCCC2)S(=O)(=O)c2ccc(C)cc2)cc1,-20.9
21,CCOC(=O)C1=C(C)C(c2ccc(OC)cc2)NC(=O)N1 (centres unmarked),9.3
22,S=C(c1ccc(N2CCOCC2)cc1)N1CCOCC1,22.7
23,CCOc1ccc(C(=O)NC(=S)Nc2ccccc2OC)cc1[N+](=O)[O-],0.902

# — paper PMC4336329 (PLoS ONE, 2015)
